Laboratory results as given in patent US20110158938A1 (INSERM INSTITUT NATIONAL DE LA SANTE ET DE LA RECHERCHE …, published 2011).

Columns and labels:
[1] = biological target: T1, IL-15Rα expressed by TF-1 cells (human, UniProt Q13261 31-267); assay: cell-based or functional assay
[2] = biological target: T1, IL-15Rα expressed by TF-1 cells; assay: competition with 80 pM [125I]-rIL-15 on TF-1 cells
Method: Human rIL-15 was radio-labeled with [¹²⁵I]-iodine (specific radioactivity of around 2000 cpm/finol) using a chloramine T method (34), and binding experiments were performed as described previously (12). Non specific binding was determined in the presence of 100 fold excess of unlabeled cytokine. For the IL-15 binding experiments, TF-1 cells were incubated with increasing concentrations of labeled rIL-15. Regression analysis of the binding data was accomplished using a one-site equilibrium binding equation (Grafit, Erithacus Software, Staines, UK) and data was plotted in the Scatchard coordinate system. For inhibition of IL-15 binding experiments, TF-1 cells were incubated with a fixed concentration of iodinated rIL-15 and increasing concentrations of FLAG-IL-15 or mutants or mAbs. Regression analysis of data was accomplished using a 4 parameter logistic equation (Grafit, Erithacus Software).
FLAG-IL-15 and mutants were then assayed for their ability to bind IL-15Rα expressed by TF-1 cells (FIGS. 4A, 4B, 4C). For that purpose, a competition assay was used that allowed to compare the efficiencies of the different mutants to inhibit the binding of a low, non-saturating concentration of radio-iodinated rIL-15 to TF-1 cells. The competition curves are shown in FIG. 4A, 4B, 4C and the concentrations of mutants giving half maximal inhibitory effects (IC50s) are listed in Table I.

[3] = biological target: T1, IL-15Rα expressed by TF-1 cells; assay: competition with 80 pM [125I]-rIL-15 on TF-1 cells (Example 2)
IL-2Rβ on TF-1β cells [4] = biological target: T2, IL-2Rβ on TF-1β cells (human, UniProt P14784 27-551); assay: cell-based or functional assay
T2 sequence (looked up): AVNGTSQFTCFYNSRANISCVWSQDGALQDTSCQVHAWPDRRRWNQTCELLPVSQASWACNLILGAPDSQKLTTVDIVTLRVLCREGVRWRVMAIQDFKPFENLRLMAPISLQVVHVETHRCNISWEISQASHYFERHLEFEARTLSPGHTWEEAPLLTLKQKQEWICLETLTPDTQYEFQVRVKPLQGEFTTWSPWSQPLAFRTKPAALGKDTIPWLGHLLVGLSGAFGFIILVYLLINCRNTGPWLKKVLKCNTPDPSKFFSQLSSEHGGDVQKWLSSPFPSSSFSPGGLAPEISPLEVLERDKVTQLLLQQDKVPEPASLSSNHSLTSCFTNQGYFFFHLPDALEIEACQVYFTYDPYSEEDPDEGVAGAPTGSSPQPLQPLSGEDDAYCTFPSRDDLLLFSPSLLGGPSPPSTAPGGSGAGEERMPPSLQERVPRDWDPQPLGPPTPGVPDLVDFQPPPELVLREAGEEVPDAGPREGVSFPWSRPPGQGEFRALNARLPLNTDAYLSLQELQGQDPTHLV

IL-2Rβ on TF-1β cells [5] = biological target: T2, IL-2Rβ on TF-1β cells; assay: cell-based or functional assay; remark: listed apart in the source
[6] = biological target: T1, IL-15Rα expressed by TF-1 cells; assay: cell-based or functional assay; remark: listed apart in the source
[7] = biological target: T1, IL-15Rα expressed by TF-1 cells; assay: competition with [125I]-rIL-15 on TF-1 cells

T1 sequence (Q13261 31-267): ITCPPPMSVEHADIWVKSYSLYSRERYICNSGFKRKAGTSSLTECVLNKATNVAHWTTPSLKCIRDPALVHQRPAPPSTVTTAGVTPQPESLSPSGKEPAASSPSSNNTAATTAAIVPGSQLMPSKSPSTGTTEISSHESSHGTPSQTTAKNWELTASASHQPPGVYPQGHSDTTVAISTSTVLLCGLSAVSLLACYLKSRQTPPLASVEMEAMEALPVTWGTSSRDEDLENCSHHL

Binder	EC50 (pM), TF-1β proliferation [1] [pM]	Relative activity (% WT), TF-1β proliferation [1] [% WT]	IC50 [2] [nM]	Relative activity (% WT) [2] [% WT]	IC50 [3] [nM]	Relative activity (% WT) [3] [% WT]	Maximal induction (% WT), TF-1β proliferation [1] [% WT]	EC50 (pM), TF-1β proliferation (IL-2Rβ on TF-1β cells [4]) [pM]	Maximal induction (% WT), TF-1β proliferation (IL-2Rβ on TF-1β cells [4]) [% WT]	maximal response of TF-1β proliferation (% of wild-type IL-15) (IL-2Rβ on TF-1β cells [5]) [%]	IC50 of inhibition of IL-15 induced TF-1β proliferation in presence of A41 [6] [nM]	Relative activity (% WT), TF-1β proliferation (IL-2Rβ on TF-1β cells [4]) [% WT]	fold reduction of affinity against wild-type IL-15 [7] [fold]
FLAG-IL-15 wild type (ligand, Secreted from 293 c18 cells through the rat preprolactin signal peptide; tested as culture supernatant; also called WT) not shown	6	100	0.0261	100	0.0236	100	–	–	–	–	–	–	–
FLAG-IL-15 E46K (ligand) not shown	> 1300	< 0.5	13.3	0.2	–	–	> 20	–	–	–	–	–	–
FLAG-IL-15 E64K (ligand) not shown	–	–	0.0182	143	–	–	–	~0.8	–	–	–	–	–
FLAG-IL-15 I50D (ligand) not shown	> 60	< 10	2.95	0.88	–	–	> 10	–	–	–	–	–	–
FLAG-IL-15 I67D (ligand) not shown	> 30	< 3	0.105	25	–	–	> 40	–	–	–	–	–	–
FLAG-IL-15 I67E (ligand) not shown	> 10	< 8	0.0637	41	–	–	> 75	–	–	–	–	–	–
FLAG-IL-15 I68D (ligand, also called 168D) not shown	–	–	0.0202	129	–	–	–	~0.8	20	–	–	–	–
FLAG-IL-15 L45D (ligand) not shown	1.7	353	0.0101	258	–	–	100	–	–	–	–	–	–
FLAG-IL-15 L45E (ligand) not shown	2.4	250	0.0125	209	–	–	100	–	–	–	–	–	–
FLAG-IL-15 L52D (ligand) not shown	1.7	353	0.0109	239	–	–	100	–	–	–	–	–	–
FLAG-IL-15 L66D (ligand) not shown	> 200	< 0.4	0.191	14	–	–	0	–	–	–	–	–	–
FLAG-IL-15 L66E (ligand) not shown	> 200	< 0.4	0.407	6	–	–	0	–	–	–	–	–	–
FLAG-IL-15 L69R (ligand) not shown	–	–	–	–	0.0091	259	–	–	–	~2	–	–	–
FLAG-IL-15 N65K (ligand) not shown	–	–	0.0266	98	–	–	–	> 200	0	–	0.012	< 0.4	–
FLAG-IL-15 Q48K (ligand) not shown	4.8	125	0.0205	127	–	–	100	–	–	–	–	–	–
FLAG-IL-15 S51D (ligand) not shown	1.9	316	0.0116	225	–	–	100	–	–	–	–	–	–
FLAG-IL-15 V49D (ligand) not shown	–	–	0.348	8	–	–	–	–	–	–	–	–	13
